# Measured values taken from paper PMC4336329 (PLoS ONE, 2015).
# The whole screen tested about 310,000 compounds, of which about 14,000 (4.5%) showed an effect of 50% or more. The effect is printed as a negative number. This is one part of the list.
# Target: human ether-à-go-go-related gene (hERG) potassium channel (human, UniProt Q12809)
# Assay: primary screen, population patch clamp on CHO cells stably expressing hERG
# 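Also: peak tail current of the secondary pulse compared with the same well before compound.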
# human ether-à-go-go-related gene (hERG) potassium channel, sequence (Q12809 whole entry, looked up): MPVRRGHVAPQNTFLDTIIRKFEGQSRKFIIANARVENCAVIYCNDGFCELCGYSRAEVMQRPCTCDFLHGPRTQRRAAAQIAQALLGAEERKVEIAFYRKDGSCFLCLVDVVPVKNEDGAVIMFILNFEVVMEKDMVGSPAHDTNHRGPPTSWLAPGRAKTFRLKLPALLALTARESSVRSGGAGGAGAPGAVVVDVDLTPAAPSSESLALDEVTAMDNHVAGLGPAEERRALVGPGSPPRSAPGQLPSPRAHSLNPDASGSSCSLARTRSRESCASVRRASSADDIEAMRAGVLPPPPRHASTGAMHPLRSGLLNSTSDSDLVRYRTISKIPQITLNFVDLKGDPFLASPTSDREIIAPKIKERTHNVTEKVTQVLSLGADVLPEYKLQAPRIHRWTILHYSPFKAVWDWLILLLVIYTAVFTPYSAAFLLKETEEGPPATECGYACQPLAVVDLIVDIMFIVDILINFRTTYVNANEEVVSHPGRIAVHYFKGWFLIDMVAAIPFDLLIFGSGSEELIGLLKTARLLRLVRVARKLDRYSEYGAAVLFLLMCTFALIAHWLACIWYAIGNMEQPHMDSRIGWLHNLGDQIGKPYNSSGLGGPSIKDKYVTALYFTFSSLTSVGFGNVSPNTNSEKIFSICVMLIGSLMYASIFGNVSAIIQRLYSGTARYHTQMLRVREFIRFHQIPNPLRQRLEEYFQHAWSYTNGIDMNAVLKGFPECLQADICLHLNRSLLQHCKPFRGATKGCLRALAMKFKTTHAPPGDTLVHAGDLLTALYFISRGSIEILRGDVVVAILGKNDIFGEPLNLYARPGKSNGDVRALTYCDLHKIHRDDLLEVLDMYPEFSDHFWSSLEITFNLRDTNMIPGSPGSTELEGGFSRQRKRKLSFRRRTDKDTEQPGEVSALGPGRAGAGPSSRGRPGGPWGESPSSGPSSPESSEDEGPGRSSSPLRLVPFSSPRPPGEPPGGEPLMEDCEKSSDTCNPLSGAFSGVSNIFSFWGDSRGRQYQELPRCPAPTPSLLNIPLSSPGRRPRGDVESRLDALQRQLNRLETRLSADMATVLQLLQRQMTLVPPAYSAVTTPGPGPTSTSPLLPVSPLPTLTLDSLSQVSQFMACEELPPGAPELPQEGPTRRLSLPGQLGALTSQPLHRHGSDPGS
row,Compound,"hERG current change (%, negative = inhibition) at 10uM [%]"
1,Cc1ccc(NC(=O)COc2ccc(/C=C3/NC(=O)NC3=O)cc2)cc1,-12.2
2,COc1cc(C)ccc1NC(=O)c1ccc(S(=O)(=O)N2CCOCC2)cc1,5.58
3,COC(=O)c1cc(C(=O)OCC(=O)Nc2cc(C)on2)cc([N+](=O)[O-])c1,17.1
4,CSCC(C)N1CCC(Oc2cccc(C(=O)NCc3ccccn3)c2)CC1 (stereo not drawn),5.23
5,COc1ccc(C(CNC(=O)c2cc3ccccc3cc2OC)N2CCCC2)cc1 (stereo not drawn),-67.5
6,Cc1ccc(-c2c(C)n([O-])c3c([n+]2=O)CCCCC3)o1,-1.3
7,CN(Cc1ccccc1)C(=O)CC(c1ccccc1)c1cc(Cl)ccc1O (stereo not drawn),-5.96
8,Cc1ccc2cc(CN(Cc3ccco3)C(=S)NCC3CCCO3)c(=O)[nH]c2c1C (stereo not drawn),-22.7
9,O=C(NCCF)[C@H]1C[C@@H]1[C@H](NP(=O)(c1ccccc1)c1ccccc1)c1ccccc1,-5.14
10,COc1ccc(CN2CCC(CO)(Cc3cccc(C(F)(F)F)c3)CC2)cc1Cn1cccn1,-75.7
11,Cc1ccc(-n2c3c(cc(C(=O)NCCCN4CCOCC4)c2=O)C(=O)CC(C)(C)C3)cc1,0.0965
12,COc1ccc(OC)c(Nc2nc(N)nc(CCl)n2)c1,-2.25
13,CCOC(=O)c1ccc(N2C(=O)CC(NC3CCN(C(=O)c4cccc(Cl)c4)CC3)C2=O)cc1 (stereo not drawn),-35.9
14,COc1cc2c(cc1OC)C(COc1cc(C)cc(C)c1)N(C(C)=O)CC2 (stereo not drawn),-22.9
15,COc1cc(/C=N/NC(=S)Nc2cccnc2)cc(OC)c1O,11.5
16,O=C(NC1CCC(O)CC1)c1ccc(-c2ccc([N+](=O)[O-])cc2)o1 (stereo not drawn),-76.2
17,NC(=O)c1c(NC(=O)C2CCCO2)sc2c1CCCCC2 (stereo not drawn),-0.219
18,COc1ccc(NC(=O)Cn2ncn3c(cc4ccccc43)c2=O)c(OC)c1OC,11.5
19,CCOc1ccc(S(=O)(=O)NCCC(=O)NCC(c2ccc(OC)cc2)N2CCCC2)cc1 (stereo not drawn),-8.04
20,COc1cc(N)c(Cl)cc1C(=O)OCC(=O)c1ccc2c(c1)NC(=O)CO2,1.68
21,COc1ccc(C2C(C(=O)c3ccco3)=C(O)C(=O)N2CCN2CCOCC2)cc1 (stereo not drawn),6.2
22,O=C(O)CCC(=O)NCC(=O)c1ccc(F)cc1,11.5
23,C=CC[N+]1(CC=C)CCOCC1.[Br-],38.2

row,Compound,"hERG current change (%, negative = inhibition) at 10uM [%]"
1,Cc1ccsc1-c1n[nH]c(=S)n1CC(C)C,21.5
2,OC1CCN(c2c3c(nc4cc(-c5ccc(F)cc5)nn24)CCC3)CC1,-7.45
3,COc1ccc(CN(C)C(=O)CNC(=O)CNC(=O)c2ccc(Cl)cc2Cl)cc1F,-43.5
4,O=C(c1ccccc1Oc1ccccc1)N1CCN(c2ccccc2)CC1,-25.7
5,COc1ccc(CC(=O)O/N=C(\N)c2ccc(C)cc2)cc1,7.58
6,Cc1ccc(NC(=S)N/N=C2\CC3CC=CC23)c(C)c1 (stereo not drawn),41.7
7,Nc1ccccc1Nc1cc(-c2cccc(Cl)c2)nn1-c1ccccc1,3.67
8,CSc1ccccc1NC(=O)c1cnccn1,9.12
9,CN(C)c1nc(NCc2ccccc2)nc(Oc2ccc(=O)[nH]n2)n1,-10.2
10,CCOC(=O)C1CCCN(C(=O)c2cccc(S(=O)(=O)N3CCOCC3)c2)C1 (stereo not drawn),15.6
11,CN(C)C(=O)CSc1nnc(Cc2ccc([N+](=O)[O-])cc2)o1,-9.75
12,Cn1c(=O)c(C(=O)CN2CC(=O)Nc3ccccc32)c(N)n(Cc2ccccc2)c1=O,20.5
13,CC(NC(=O)C(=O)NCCCn1ccnc1)c1ccccc1 (stereo not drawn),15.6
14,COc1ccc(C(C(O)C(=O)c2c[nH]c3ccccc23)N2CCN(c3ccccc3)CC2)cc1 (stereo not drawn),-13.8
15,COc1ccc(N2CCN(C(=O)CCCCCn3c(=O)[nH]c4ccsc4c3=O)CC2)cc1,-35.1
16,O=S1(=O)CC=C(CSC(=S)NC2CCS(=O)(=O)C2)C1 (stereo not drawn),20.5
17,CCN(CC(=O)NCc1ccc(Cl)cc1)C(=O)COc1cccc(Cl)c1,-73.5
18,CC(=O)N1CCN(c2ccc(NCc3ccc(C)s3)cc2)CC1.Cl,0.9
19,O=C(NCCc1ccc(Cl)cc1)c1cccs1,-3.58
20,COc1ccc(N2CCN(S(=O)(=O)/C=C/c3ccccc3)CC2)cc1,1.54
21,COCCNC(=O)CSc1ccc(Cl)cc1,11.9
22,O=C1c2oc3ccc(Cl)cc3c(=O)c2C(c2cccc(Br)c2)N1CCO (stereo not drawn),-13.1
